Usually IC50 stands for the concentration that inhibits the measured activity by half.

In patent publication US20260193238A1, “PHARMACEUTICAL COMPOUNDS AS PARP7 AND/OR PARP1 INHIBITORS” (Duke Street Bio Limited, priority 2022, published 2026) one finds IC50 data, which are given here for 39 compounds.

The test deals with T1, PARP7 (amino acids 456-657) (Homo sapiens, UniProt Q7Z3E1).
T1 sequence (Q7Z3E1 456-657): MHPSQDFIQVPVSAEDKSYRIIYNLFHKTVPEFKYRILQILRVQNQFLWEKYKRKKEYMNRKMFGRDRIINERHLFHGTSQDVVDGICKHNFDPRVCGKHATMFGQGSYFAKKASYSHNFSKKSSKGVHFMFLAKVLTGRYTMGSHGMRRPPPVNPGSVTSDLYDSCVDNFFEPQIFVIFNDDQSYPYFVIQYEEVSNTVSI
The test is described as follows: PARP7 biochemical DELFIA assay (auto-MARylation). The note with it: Table 1A.
On to `O=C(CN1CCCC1c1c[nH]c(=O)c(Cl)c1)N1CCN(c2ncc(C(F)(F)F)cn2)CC1` (single isomer, unassigned) [Compound 78a, 3-chloro-5-(1-(2-oxo-2-(4-(5-(trifluoromethyl)pyrimidin-2-yl)piperazin-1-yl)ethyl)pyrrolidin-2-yl)pyridin-2(1H)-one], for which the IC50 was at most 10 nM.

On to `O=C(CN1CCCC1c1c[nH]c(=O)c(Cl)c1)N1CCN(c2ncc(C(F)(F)F)cn2)CC1` (single isomer, unassigned) [Compound 78b, 3-chloro-5-(1-(2-oxo-2-(4-(5-(trifluoromethyl)pyrimidin-2-yl)piperazin-1-yl)ethyl)pyrrolidin-2-yl)pyridin-2(1H)-one], for which the IC50 lay within 100 to 1000 nM.

As for `O=C(CN1CCCC1c1cc(C(F)(F)F)c(=O)[nH]n1)N1CCN(c2ccc(C3CC3)cn2)CC1` (single isomer, unassigned) [Compound 79a], the concentration for half-maximal inhibition (IC50) was at most 10 nM.

`O=C(CN1CCCC1c1cc(C(F)(F)F)c(=O)[nH]n1)N1CCN(c2cc(Cl)c(F)cn2)CC1` (single isomer, unassigned) [Compound 80b] showed an IC50 of at most 10 nM.

`O=C(CN1CCCC1c1cc(C(F)(F)F)c(=O)[nH]n1)N1CCN(c2ccc(OC(F)(F)F)cn2)CC1` (single isomer, unassigned) [Compound 81b] showed an IC50 of at most 10 nM.

Take `CC(C)(C)c1cnc(N2CCN(C(=O)CN3CCCC3c3cc(C(F)(F)F)c(=O)[nH]n3)CC2)nc1` (single isomer, unassigned) [Compound 82a]: the half-inhibitory concentration (IC50) was at most 10 nM.

On to `CC(C)(C)c1cnc(N2CCN(C(=O)CN3CCCC3c3cc(C(F)(F)F)c(=O)[nH]n3)CC2)nc1` (single isomer, unassigned) [Compound 82b], for which the 50% inhibitory concentration (IC50) is 100 to 1000 nM.

As for `O=C(CN1CCCC1c1cc(C(F)(F)F)c(=O)[nH]n1)N1CCN(c2ncc(F)cc2F)CC1` (single isomer, unassigned) [Compound 83a], the 50% inhibitory concentration (IC50) was at most 10 nM.

Regarding `O=C(CN1CCCC1c1cc(C(F)(F)F)c(=O)[nH]n1)N1CCN(c2ncc(F)cc2F)CC1` (single isomer, unassigned) [Compound 83b], the IC50 was in the range of 100 to 1000 nM.

`O=C(CN1CCCC1c1c[nH]c(=O)c(C(F)(F)F)n1)N1CCN(c2ncc(C(F)(F)F)cn2)CC1` (single isomer, unassigned) [Compound 84a, 5-(1-(2-oxo-2-(4-(5-(trifluoromethyl)pyrimidin-2-yl)piperazin-1-yl)ethyl)pyrrolidin-2-yl)-3-(trifluoromethyl)pyrazin-2(1H)-one] registered a 50% inhibitory concentration (IC50) of 10 to 100 nM.

Consider `O=C(CN1CCCC1c1c[nH]c(=O)c(C(F)(F)F)n1)N1CCN(c2ncc(C(F)(F)F)cn2)CC1` (single isomer, unassigned) [Compound 84b, 5-(1-(2-oxo-2-(4-(5-(trifluoromethyl)pyrimidin-2-yl)piperazin-1-yl)ethyl)pyrrolidin-2-yl)-3-(trifluoromethyl)pyrazin-2(1H)-one], for which the half-maximal inhibitory concentration (IC50) is 100 to 1000 nM.

On to `O=C(CN1CCCC1c1cc(C(F)(F)F)c(=O)[nH]n1)N1CCN(c2nc3ccc(Cl)cc3o2)CC1` (single isomer, unassigned) [Compound 85a], for which the IC50 is at most 10 nM.

`O=C(CN1CCCC1c1cc(C(F)(F)F)c(=O)[nH]n1)N1CCN(c2nc3ccc(Cl)cc3o2)CC1` (single isomer, unassigned) [Compound 85b] returned an IC50 of 100 to 1000 nM.

With `CC1(C)CC(c2cc(C(F)(F)F)c(=O)[nH]n2)CN(CCC(=O)N2CCN(c3ncc(C(F)(F)F)cn3)CC2)C1` (single isomer, unassigned) [Compound 87a], the IC50 was in the range of 1000 to 10000 nM.

For the compound `CC1(C)CC(c2cc(C(F)(F)F)c(=O)[nH]n2)CN(CCC(=O)N2CCN(c3ncc(C(F)(F)F)cn3)CC2)C1` (single isomer, unassigned) [Compound 87b], the concentration for half-maximal inhibition (IC50) fell in the range of 10 to 100 nM.

`O=C(CN1CCOCC1c1cc(C(F)(F)F)c(=O)[nH]n1)N1CCN(c2ncc(C(F)(F)F)cn2)CC1` (single isomer, unassigned) [Compound 88a]: the half-maximal inhibitory concentration (IC50) was in the range of 100 to 1000 nM.

For `CNC(=O)c1ccc(N2CCN(C(=O)CN3CCOCC3c3cc(C(F)(F)F)c(=O)[nH]n3)CC2)cn1` (single isomer, unassigned) [Compound 90b], the concentration for half-maximal inhibition (IC50) fell in the range of 1000 to 10000 nM.

As for `O=C(CN1CCCC1c1cc(C(F)(F)F)c(=O)[nH]n1)N1CCN(c2nc3cc(F)ccc3o2)CC1` (single isomer, unassigned) [Compound 93b], the IC50 lay within 100 to 1000 nM.

In turn, `CC1(C)CC(c2cc(C(F)(F)F)c(=O)[nH]n2)N(CC(=O)N2CCN(c3ncc(C(F)(F)F)cn3)CC2)C1` (single isomer, unassigned) [Compound 94b] had an IC50 of 1000 to 10000 nM.

For the compound `O=C(CN1CCCC1c1cc(C(F)(F)F)c(=O)[nH]n1)N1CCN(c2nc3ccc(F)cc3o2)CC1` (single isomer, unassigned) [Compound 95b], the concentration for half-maximal inhibition (IC50) lay in the range of 100 to 1000 nM.

The compound `N#Cc1ccc2nc(N3CCN(C(=O)CN4CCCC4c4cc(C(F)(F)F)c(=O)[nH]n4)CC3)oc2c1` (single isomer, unassigned) [Compound 96a] had an IC50 of 100 to 1000 nM.

As to `N#Cc1ccc2nc(N3CCN(C(=O)CN4CCCC4c4cc(C(F)(F)F)c(=O)[nH]n4)CC3)oc2c1` (single isomer, unassigned) [Compound 96b], the IC50 is at most 10 nM.

The compound `Cn1c(N2CCN(C(=O)CN3CCCC3c3cc(C(F)(F)F)c(=O)[nH]n3)CC2)nc2ccccc21` (single isomer, unassigned) [Compound 97a] yielded an IC50 of at most 10 nM.

With `Cn1c(N2CCN(C(=O)CN3CCCC3c3cc(C(F)(F)F)c(=O)[nH]n3)CC2)nc2ccccc21` (single isomer, unassigned) [Compound 97b], the concentration for half-maximal inhibition (IC50) is 100 to 1000 nM.

Turning to `N#Cc1cc(C2CCCN2CC(=O)N2CCN(c3ncc(C(F)(F)F)cn3)CC2)n[nH]c1=O` (single isomer, unassigned) [Compound 98a, 3-oxo-6-(1-(2-oxo-2-(4-(5-(trifluoromethyl)pyrimidin-2-yl)piperazin-1-yl)ethyl)pyrrolidin-2-yl)-2,3-dihydropyridazine-4-carbonitrile], the concentration for half-maximal inhibition (IC50) is at most 10 nM.

`N#Cc1cc(C2CCCN2CC(=O)N2CCN(c3ncc(C(F)(F)F)cn3)CC2)n[nH]c1=O` (single isomer, unassigned) [Compound 98b, 3-oxo-6-(1-(2-oxo-2-(4-(5-(trifluoromethyl)pyrimidin-2-yl)piperazin-1-yl)ethyl)pyrrolidin-2-yl)-2,3-dihydropyridazine-4-carbonitrile] yielded an IC50 of 1000 to 10000 nM.

In the case of `O=C(CN1CCCC1c1cc(C(F)(F)F)c(=O)[nH]n1)N1CCN(c2nc3cc(Cl)ccc3o2)CC1` (single isomer, unassigned) [Compound 99a], the IC50 was at most 10 nM.

Take `O=C(CN1CCCC1c1cc(C(F)(F)F)c(=O)[nH]n1)N1CCN(c2nc3cc(Cl)ccc3o2)CC1` (single isomer, unassigned) [Compound 99b]: the half-maximal inhibitory concentration (IC50) is 100 to 1000 nM.

`N#Cc1ccc2oc(N3CCN(C(=O)CN4CCCC4c4cc(C(F)(F)F)c(=O)[nH]n4)CC3)nc2c1` (single isomer, unassigned) [Compound 100a] showed an IC50 of at most 10 nM.

In turn, `N#Cc1ccc2oc(N3CCN(C(=O)CN4CCCC4c4cc(C(F)(F)F)c(=O)[nH]n4)CC3)nc2c1` (single isomer, unassigned) [Compound 100b] yielded a half-inhibitory concentration (IC50) of 1000 to 10000 nM.

With `O=C(CN1CCCC1c1cc(C(F)(F)F)c(=O)[nH]n1)N1CCC2(CC1)CN(c1ncc(C(F)(F)F)cn1)C2` (single isomer, unassigned) [Compound 101b], the IC50 lay in the range of 100 to 1000 nM.

For the compound `Cc1[nH]c(=O)c(C(F)(F)F)cc1C1CCCN1CC(=O)N1CCN(c2ncc(C(F)(F)F)cn2)CC1` (single isomer, unassigned) [Compound 102a, 6-methyl-5-(1-(2-oxo-2-(4-(5-(trifluoromethyl)pyrimidin-2-yl)piperazin-1-yl)ethyl)pyrrolidin-2-yl)-3-(trifluoromethyl)pyridin-2(1H)-one], the half-maximal inhibitory concentration (IC50) is at most 10 nM.

The compound `Cc1[nH]c(=O)c(C(F)(F)F)cc1C1CCCN1CC(=O)N1CCN(c2ncc(C(F)(F)F)cn2)CC1` (single isomer, unassigned) [Compound 102b, 6-methyl-5-(1-(2-oxo-2-(4-(5-(trifluoromethyl)pyrimidin-2-yl)piperazin-1-yl)ethyl)pyrrolidin-2-yl)-3-(trifluoromethyl)pyridin-2(1H)-one] displayed a half-maximal inhibitory concentration (IC50) of 10 to 100 nM.

For the compound `O=C(CN1Cc2ccccc2C1c1cc(C(F)(F)F)c(=O)[nH]n1)N1CCN(c2ncc(C(F)(F)F)cn2)CC1` (single isomer, unassigned) [Compound 104a, 6-(2-(2-oxo-2-(4-(5-(trifluoromethyl)pyrimidin-2-yl)piperazin-1-yl)ethyl)isoindolin-1-yl)-4-(trifluoromethyl)pyridazin-3(2H)-one], the half-maximal inhibitory concentration (IC50) is at most 10 nM.

Regarding `O=C(CN1Cc2ccccc2C1c1cc(C(F)(F)F)c(=O)[nH]n1)N1CCN(c2ncc(C(F)(F)F)cn2)CC1` (single isomer, unassigned) [Compound 104b, 6-(2-(2-oxo-2-(4-(5-(trifluoromethyl)pyrimidin-2-yl)piperazin-1-yl)ethyl)isoindolin-1-yl)-4-(trifluoromethyl)pyridazin-3(2H)-one], the IC50 lay in the range of 100 to 1000 nM.

With `CCc1[nH]c(=O)c(C(F)(F)F)cc1C1CCCN1CC(=O)N1CCN(c2ncc(C(F)(F)F)cn2)CC1` (single isomer, unassigned) [Compound 105a], the IC50 lay in the range of 10 to 100 nM.

Compound `O=C(CN1CCCC1c1cc(C(F)(F)F)c(=O)[nH]n1)N1CC2(C1)CN(c1ncc(C(F)(F)F)cn1)C2` (single isomer, unassigned) [Compound 106b] registered a half-maximal inhibitory concentration (IC50) of 1000 to 10000 nM.

`CN(c1ncc(C(F)(F)F)cn1)C1CCN(C(=O)CN2CCCC2c2cc(C(F)(F)F)c(=O)[nH]n2)CC1` (single isomer, unassigned) [Compound 107a] yielded an IC50 of 100 to 1000 nM.

In the case of `CN(c1ncc(C(F)(F)F)cn1)C1CCN(C(=O)CN2CCCC2c2cc(C(F)(F)F)c(=O)[nH]n2)CC1` (single isomer, unassigned) [Compound 107b], the IC50 was 100 to 1000 nM.
